# From the supplement of paper PMC8728848
# This is one part of the list.
# B1: Pbx1 (Cryptococcus neoformans) (protein)
# chain: ATTKCLVSGDQDSINNALALGGEGTTVTLCPGSVHRLNSSIIFTAPSQTLTTLGNPKDRNRAMLVVDGEDLACAIRADCKQCSHAMIRSLVIDGNRPQLLRIPKGDALIEVGNAESQTVRDCKLYEPRGWSALHFREGDERQCRFGHIVDNEIGPCGEEWDDEYDSMDETKPLWGNPRADGISLACKDSIVERNVVYDATDGAIVLFGSAGSTVKNNHVYARTRVILGGINLVDYEPWDGDYTNVKVHHNHLYALGRYFKVGIVIGPASWSDDTESVVHSASVTDNEFSGGYWGYGIVVASAKNFEVLRNKVIWDGEQGVARFSGVPGSRCPKAPENGKPTAFLINRGSAKGIFQDDFVNGEVQHIICLNPDQDPPYKPWRFRDSPEAIAAKQAENPTANSAFDSRIAEALVSYQMSLLNSMDAMTQKVEHLTNPIVDDALPFVHEHERAEADKKARQEASRKEKESGNKDVDMLNVKVEELEKSGRRLKKALDGLKSDFEGLSGRLKKSADENKPIIETIFVTSQNLLLGATSQQN
# How the values were obtained:
# Test in all cases: glycan array binding signal (z-score within array); higher = stronger binding
# Conditions in all cases: glycan notation: IUPAC condensed, linker removed
# [1] = molecular target: Neu5Ac(a2-3)Gal(b1-4)GlcNAc
# Procedure, shortened: (§1)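 Columns mapping to the same glycan were averaged after glycan names were converted to IUPAC-condensed notation. The data come from 3228 arrays in the Consortium for Functional Glycomics database, limited to those with an available protein sequence. Binding is reported as a within-array Z-score averaged across arrays of one protein sequence and across linkers.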
# [2] = molecular target: Neu5Ac(a2-3)Gal(b1-4)GlcNAc(b1-2)Man
# Procedure, shortened: as §1
# [3] = molecular target: Neu5Ac(a2-3)Gal(b1-4)GlcNAc(b1-2)Man(a1-3)[GlcNAc(b1-4)][Neu5Ac(a2-3)Gal(b1-4)GlcNAc(b1-2)Man(a1-6)]Man(b1-4)GlcNAc(b1-4)GlcNAc
# Procedure, shortened: as §1
# [4] = molecular target: Neu5Ac(a2-3)Gal(b1-4)GlcNAc(b1-2)Man(a1-3)[Neu5Ac(a2-3)Gal(b1-4)GlcNAc(b1-2)Man(a1-6)]Man(b1-4)GlcNAc(b1-4)GlcNAc
# Procedure, shortened: as §1
# [5] = molecular target: Neu5Ac(a2-3)Gal(b1-4)GlcNAc(b1-2)Man(a1-3)[Neu5Ac(a2-3)Gal(b1-4)GlcNAc(b1-2)Man(a1-6)]Man(b1-4)GlcNAc(b1-4)[Fuc(a1-6)]GlcNAc
# Procedure, shortened: as §1
# [6] = molecular target: Neu5Ac(a2-3)Gal(b1-4)GlcNAc(b1-2)Man(a1-3)[Neu5Ac(a2-6)Gal(b1-4)GlcNAc(b1-2)Man(a1-6)]Man(b1-4)GlcNAc(b1-4)GlcNAc
# Procedure, shortened: as §1
# [7] = molecular target: Neu5Ac(a2-3)Gal(b1-4)GlcNAc(b1-2)[Neu5Ac(a2-3)Gal(b1-4)GlcNAc(b1-4)]Man(a1-3)[GlcNAc(b1-4)][Neu5Ac(a2-3)Gal(b1-4)GlcNAc(b1-2)[Neu5Ac(a2-3)Gal(b1-4)GlcNAc(b1-6)]Man(a1-6)]Man(b1-4)GlcNAc(b1-4)GlcNAc
# Procedure, shortened: as §1
# [8] = molecular target: Neu5Ac(a2-3)Gal(b1-4)GlcNAc(b1-2)[Neu5Ac(a2-3)Gal(b1-4)GlcNAc(b1-4)]Man(a1-3)[GlcNAc(b1-4)][Neu5Ac(a2-3)Gal(b1-4)GlcNAc(b1-4)Man(a1-6)]Man(b1-4)GlcNAc(b1-4)GlcNAc
# Procedure, shortened: as §1
# [9] = molecular target: Neu5Ac(a2-3)Gal(b1-4)GlcNAc(b1-2)[Neu5Ac(a2-3)Gal(b1-4)GlcNAc(b1-6)]Man(a1-6)[Neu5Ac(a2-3)Gal(b1-4)GlcNAc(b1-2)Man(a1-3)]Man(b1-4)GlcNAc(b1-4)GlcNAc
# Procedure, shortened: as §1
# [10] = molecular target: Neu5Ac(a2-3)Gal(b1-4)GlcNAc(b1-2)[Neu5Ac(a2-3)Gal(b1-4)GlcNAc(b1-6)]Man(a1-6)[Neu5Ac(a2-3)Gal(b1-4)GlcNAc(b1-2)Man(a1-3)][GlcNAc(b1-4)]Man(b1-4)GlcNAc(b1-4)GlcNAc
# Procedure, shortened: as §1
# [11] = molecular target: Neu5Ac(a2-3)Gal(b1-4)GlcNAc(b1-3)Gal
# Procedure, shortened: as §1
# [12] = molecular target: Neu5Ac(a2-3)Gal(b1-4)GlcNAc(b1-3)Gal(b1-3)GlcNAc
# Procedure, shortened: as §1
# [13] = molecular target: Neu5Ac(a2-3)Gal(b1-4)GlcNAc(b1-3)Gal(b1-4)GlcNAc
# Procedure, shortened: as §1
# [14] = molecular target: Neu5Ac(a2-3)Gal(b1-4)GlcNAc(b1-3)Gal(b1-4)GlcNAc(b1-2)Man(a1-3)[Neu5Ac(a2-3)Gal(b1-4)GlcNAc(b1-3)Gal(b1-4)GlcNAc(b1-2)Man(a1-6)]Man(b1-4)GlcNAc(b1-4)GlcNAc
# Procedure, shortened: as §1
# [15] = molecular target: Neu5Ac(a2-3)Gal(b1-4)GlcNAc(b1-3)Gal(b1-4)GlcNAc(b1-3)Gal(b1-4)GlcNAc
# Procedure, shortened: as §1
# [16] = molecular target: Neu5Ac(a2-3)Gal(b1-4)GlcNAc(b1-3)Gal(b1-4)GlcNAc(b1-3)Gal(b1-4)GlcNAc(b1-2)Man(a1-3)[Neu5Ac(a2-3)Gal(b1-4)GlcNAc(b1-3)Gal(b1-4)GlcNAc(b1-3)Gal(b1-4)GlcNAc(b1-2)Man(a1-6)]GalNAc
# Procedure, shortened: as §1
# [17] = molecular target: Neu5Ac(a2-3)Gal(b1-4)GlcNAc(b1-3)Gal(b1-4)GlcNAc(b1-3)GalNAc
# Procedure, shortened: as §1
# [18] = molecular target: Neu5Ac(a2-3)Gal(b1-4)GlcNAc(b1-3)Gal(b1-4)GlcNAc(b1-3)[Neu5Ac(a2-3)Gal(b1-4)GlcNAc(b1-3)Gal(b1-4)GlcNAc(b1-6)]GalNAc
# Procedure, shortened: as §1
# [19] = molecular target: Neu5Ac(a2-3)Gal(b1-4)GlcNAc(b1-3)Gal(b1-4)GlcNAc(b1-6)[Gal(b1-3)]GalNAc
# Procedure, shortened: as §1
# [20] = molecular target: Neu5Ac(a2-3)Gal(b1-4)GlcNAc(b1-3)Gal(b1-4)[Fuc(a1-3)]GlcNAc
# Procedure, shortened: as §1
# [21] = molecular target: Neu5Ac(a2-3)Gal(b1-4)GlcNAc(b1-3)GalNAc
# Procedure, shortened: as §1
# [22] = molecular target: Neu5Ac(a2-3)Gal(b1-4)GlcNAc(b1-3)[Neu5Ac(a2-3)Gal(b1-4)GlcNAc(b1-6)]GalNAc
# Procedure, shortened: as §1
# [23] = molecular target: Neu5Ac(a2-3)Gal(b1-4)GlcNAc(b1-6)GalNAc
# Procedure, shortened: as §1
# [24] = molecular target: Neu5Ac(a2-3)Gal(b1-4)GlcNAc(b1-6)[Gal(b1-3)]GalNAc
# Procedure, shortened: as §1
# [25] = molecular target: Neu5Ac(a2-3)Gal(b1-4)GlcNAc(b1-6)[Neu5Ac(a2-3)Gal(b1-3)]GalNAc
# Procedure, shortened: as §1
# [26] = molecular target: Neu5Ac(a2-3)Gal(b1-4)GlcNAc6S
# Procedure, shortened: as §1
# [27] = molecular target: Neu5Ac(a2-3)Gal(b1-4)[Fuc(a1-3)]GlcNAc
# Procedure, shortened: as §1
# [28] = molecular target: Neu5Ac(a2-3)Gal(b1-4)[Fuc(a1-3)]GlcNAc(b1-2)Man
# Procedure, shortened: as §1
# [29] = molecular target: Neu5Ac(a2-3)Gal(b1-4)[Fuc(a1-3)]GlcNAc(b1-3)Gal
# Procedure, shortened: as §1
# [30] = molecular target: Neu5Ac(a2-3)Gal(b1-4)[Fuc(a1-3)]GlcNAc(b1-3)Gal(b1-4)GlcNAc
# Procedure, shortened: as §1
# [31] = molecular target: Neu5Ac(a2-3)Gal(b1-4)[Fuc(a1-3)]GlcNAc(b1-3)Gal(b1-4)[Fuc(a1-3)]GlcNAc(b1-3)Gal(b1-4)[Fuc(a1-3)]GlcNAc
# Procedure, shortened: as §1
# [32] = molecular target: Neu5Ac(a2-3)Gal(b1-4)[Fuc(a1-3)]GlcNAc(b1-3)GalNAc
# Procedure, shortened: as §1
# [33] = molecular target: Neu5Ac(a2-3)Gal(b1-4)[Fuc(a1-3)]GlcNAc(b1-6)[Gal(b1-3)]GalNAc
# Procedure, shortened: as §1
# [34] = molecular target: Neu5Ac(a2-3)Gal(b1-4)[Fuc(a1-3)]GlcNAc(b1-6)[Neu5Ac(a2-3)Gal(b1-3)]GalNAc
# Procedure, shortened: as §1
# [35] = molecular target: Neu5Ac(a2-3)Gal(b1-4)[Fuc(a1-3)]GlcNAc6S
# Procedure, shortened: as §1
# [36] = molecular target: Neu5Ac(a2-3)Gal6S(b1-4)GlcNAc
# Procedure, shortened: as §1
# [37] = molecular target: Neu5Ac(a2-3)Gal6S(b1-4)[Fuc(a1-3)]GlcNAc
# Procedure, shortened: as §1
# Neu5Ac(a2-3)GalNAc = molecular target: Neu5Ac(a2-3)GalNAc
# Procedure, shortened: as §1
binder,measurement,setting,value
B1,glycan array binding signal (z-score),[1],-0.401
same,glycan array binding signal (z-score),[2],1.99
same,glycan array binding signal (z-score),[3],-0.463
same,glycan array binding signal (z-score),[4],0.152
same,glycan array binding signal (z-score),[5],-0.268
same,glycan array binding signal (z-score),[6],-0.27
same,glycan array binding signal (z-score),[7],0.361
same,glycan array binding signal (z-score),[8],-0.306
same,glycan array binding signal (z-score),[9],-0.318
same,glycan array binding signal (z-score),[10],-0.217
same,glycan array binding signal (z-score),[11],-0.544
same,glycan array binding signal (z-score),[12],-0.386
same,glycan array binding signal (z-score),[13],-0.201
same,glycan array binding signal (z-score),[14],-0.37
same,glycan array binding signal (z-score),[15],-0.335
same,glycan array binding signal (z-score),[16],1.77
same,glycan array binding signal (z-score),[17],-0.115
same,glycan array binding signal (z-score),[18],0.917
same,glycan array binding signal (z-score),[19],-0.042
same,glycan array binding signal (z-score),[20],0.13
same,glycan array binding signal (z-score),[21],-0.607
same,glycan array binding signal (z-score),[22],-0.561
same,glycan array binding signal (z-score),[23],-0.703
same,glycan array binding signal (z-score),[24],-0.318
same,glycan array binding signal (z-score),[25],0.206
same,glycan array binding signal (z-score),[26],-0.551
same,glycan array binding signal (z-score),[27],-0.072
same,glycan array binding signal (z-score),[28],0.371
same,glycan array binding signal (z-score),[29],-0.349
same,glycan array binding signal (z-score),[30],0.071
same,glycan array binding signal (z-score),[31],-0.497
same,glycan array binding signal (z-score),[32],2.16
same,glycan array binding signal (z-score),[33],3.7
same,glycan array binding signal (z-score),[34],0.371
same,glycan array binding signal (z-score),[35],-0.255
same,glycan array binding signal (z-score),[36],0.775
same,glycan array binding signal (z-score),[37],-1.04
same,glycan array binding signal (z-score),Neu5Ac(a2-3)GalNAc,-0.361
